Source: the RNAGym collection of RNA variant scans (doi:10.7554/elife.90254)
Read counts are not given, so values of variants with three or more changes are uncertain.

B1: OR4K15 (parent)
chain: GUUAACGGUCAUAGGCCAUGGAAACUAGGAGCACCAUUUCGCUGCCAGUGAAGAAAUGAACAAAGAAAAUCUGGGCCAGGCAGGCAUCAAAAGAAAUAGUCUUGCGCUCAACCAGAAAGUCUGUAAUCAUUUUAAGGGUA

Variants of: B1
Test: self-cleavage, relative activity (ratio to wild type); higher = more cleavage; in vitro, sequencing; the parent is a self-cleaving ribozyme

Row | Variant | self-cleavage
1 | G31A U127C U130C | 0.8
2 | U12C A78G A92G | 0.18
3 | A27G U37C G115A | 0.31
4 | A24G U43G A52G A68G U103C | 1.93
5 | A5U A27U A54G A60G | 1
6 | U9A A64G A116U | 0.06
7 | U2C A114U U132C | 0.01
8 | A23G U102C U103G A111G U131C | 0
9 | A13G A59G A117C | 0.75
10 | A11G A90G A114U | 0
11 | A56G A69G U132A | 0.46
12 | A47G U97C U127C | 0.2
13 | A24C A33U A60G A90C | 0.46
14 | A11G A59G A89G | 0.73
15 | C61U A63G A86G | 1.08
16 | A69G U102C U131C | 1.42
17 | U9C U38C C81U | 0.29
18 | U3C A68G A86G | 1.62
19 | G29A U39A A56G A62G U100C U133C | 2.96
20 | U57C G115U U122C U130C G138A U139A | 0
21 | U3A A68G U122C | 1.28

Row | Variant | self-cleavage
22 | A18G A95G A110G | 0.12
23 | A27G A64G A91G U108A A110G | 0.01
24 | U12A A59G U70C A90G | 0.17
25 | U9C A90G A126G A129G | 0.47
26 | A56G U100C U103C | 2.45
27 | A5G A55G A135U | 0.61
28 | A51U A56G A59G C105U A114G | 0.07
29 | U2C A11G U132C | 0.55
30 | G14A U37C G44A | 0.83
31 | U9C U39C A92G | 1.82
32 | A36C A111G A116G | 0.01
33 | A5G C17U A59U A96G | 1.07
34 | A5G A22G A60G A89G | 0.58
35 | A24G C34U A36G U38C A92G U97C | 0.74
36 | U2A U9C A118G | 0.91
37 | U2C A52G U87C | 1.12
38 | A56G A66G A126C | 1.5
39 | A22G A125C U127C | 0.58
40 | A94G C105U U120C | 0.03
41 | A82C U120A A129G | 0.07
42 | U12C A59U U132C | 2.21

Row | Variant | self-cleavage
43 | A59G A64G A67G A82G | 0.51
44 | U2C U72C U108C | 0.02
45 | A36G A59U A91G U108C U127C | 0.01
46 | G15A A36G A89G A96G | 1.45
47 | G84C A92U U100A U108C U127C U139A | 0
48 | A110G A117G A118C U132C | 0
49 | A4G A56G A78G | 0.68
50 | G15A A30G A67G G136U | 1.29
51 | A27G A51U A68G C81U U102C U130C U139C | 0.15
52 | U72A A94U U130C | 0.06
53 | A47G A54G A68G A89G A117U | 1.14
54 | C10U A13G A86G A111C | 0.06
55 | A89U A116U U131C | 0.23
56 | A11G A33G A59G G106C A117G | 0.03
57 | C16U U102C A111G | 0.01
58 | A5G U72A A129U | 0.21
59 | A33U A111G U130C | 0.01
60 | A18G A60G A78U U132C | 0.16
61 | C35U A51G U120C A135G | 0.54
62 | U2C C71A A82G A114U | 0.05
63 | A11G A30G A116U | 0.67

Row | Variant | self-cleavage
64 | A69U A89C A96G U122A | 1.96
65 | A82G U87C A91G A96G U139A | 0.14
66 | A36C A94G U122C | 1.78
67 | U9C U49C U131C | 1.8
68 | A11C A18G A91G A126U | 0.81
69 | U9C A27G U57C A68G U130C | 0.66
70 | A5U U12G A78U A117G U139A | 0.72
71 | U49A A56G A86G U131C | 1.28
72 | A91G A111G U130C | 0.01
73 | A23G U26C U37C C81U | 0.5
74 | A47U G50U U139A | 1.13
75 | G20A U102A U108C | 0.01
76 | U2C A23G U57A A91G U103C | 0.07
77 | U43C A67U A126G | 0.64
78 | A11U A24C U49C A52G U103C | 0.87
79 | A56C G106A A118G U132C | 0.01
80 | G8U A23G U39C | 1.39
81 | A27U A96G C112U | 0.01
82 | A4U A5G A82G | 1.19
83 | A56C A66G A94G A114U | 0.03
84 | U39C A54G A95G | 2.53
